# Assay results as given in PubChem BioAssay AID1460 (National Center for Advancing Translational Sciences (NCATS), 2008).
# Out of some 270,000 compounds screened, about 5,800 (2.1%) were called active. Inconclusive means that the source gave no clear call. Such entries were picked first, then a sample of the others. The call rests on the fitted dose curve; in most records, active means well fitted inhibition curve with a large enough effect; inconclusive means small, poorly fitted or top-dose-only effect; inactive means flat fitted curve, though single readings scatter. Potencies of inconclusive entries are doubtful fits and often do not repeat.
# Molecular target: Microtubule-associated protein tau (Homo sapiens) (UniProt P10636)
# Experiment: qHTS for Inhibitors of Tau Fibril Formation, Thioflavin T Binding; further: nearly all actives have a fitted effect of over 55% in size
# Details: recombinant tau K18 P301L (four-repeat tau fragment), heparin-induced fibrillization, ThT fluorescence; series mostly up to 57.4 µM
# Summary of the method: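 Recombinant human tau K18 fragment […] carrying P301L, 15 uM unlabeled plus 0.24 uM Alexa 594-labeled, was fibrillized with 20 uM heparin in 100 mM sodium acetate pH 7 for 6 hr at 37 C; 30 uM ThT fluorescence read after 1 hr.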
# On the % scale 0 is the no-effect control and ±100 the full control effect; potency means the concentration at half of the fitted maximal effect; tags describe the fitted curve by direction and shape.
# UniProt P10636, sequence (P10636 whole entry, looked up): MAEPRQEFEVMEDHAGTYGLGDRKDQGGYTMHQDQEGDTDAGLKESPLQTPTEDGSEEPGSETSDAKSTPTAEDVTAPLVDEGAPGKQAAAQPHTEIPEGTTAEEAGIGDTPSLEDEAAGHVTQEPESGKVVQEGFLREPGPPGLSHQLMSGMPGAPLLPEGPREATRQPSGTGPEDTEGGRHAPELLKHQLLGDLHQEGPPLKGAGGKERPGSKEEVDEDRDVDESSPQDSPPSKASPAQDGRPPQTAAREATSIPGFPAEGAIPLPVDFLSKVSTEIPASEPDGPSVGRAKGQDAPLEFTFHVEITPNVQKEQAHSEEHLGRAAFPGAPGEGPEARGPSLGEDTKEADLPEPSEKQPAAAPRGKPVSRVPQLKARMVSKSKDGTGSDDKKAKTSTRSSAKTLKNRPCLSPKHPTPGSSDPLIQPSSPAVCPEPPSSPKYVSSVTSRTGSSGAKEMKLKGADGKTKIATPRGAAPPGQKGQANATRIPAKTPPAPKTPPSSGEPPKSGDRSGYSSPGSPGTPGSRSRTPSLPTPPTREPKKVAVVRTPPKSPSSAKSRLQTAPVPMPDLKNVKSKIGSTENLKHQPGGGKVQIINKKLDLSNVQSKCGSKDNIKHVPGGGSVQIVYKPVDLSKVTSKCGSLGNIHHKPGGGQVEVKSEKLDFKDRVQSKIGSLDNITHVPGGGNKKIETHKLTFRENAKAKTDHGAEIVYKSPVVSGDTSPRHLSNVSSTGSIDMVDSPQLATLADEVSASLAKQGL
SMILES,Potency,"activity, negative = inhibition"
COc1cccc(NC(=O)C2C3CCC4C(CCC32)C4(Cl)Cl)c1 (stereo not given),inactive,
CCC(=O)N(CCC(c1ccccc1)c1ccco1)Cc1cccs1 (stereo not given),"inconclusive: 12.6 µM [inhibitor, partial curve]",
O=c1c(C(c2ccc(F)cc2)c2c(O)nc3n(c2=O)CCS3)c(O)nc2n1CCS2,"inconclusive: 7.94 µM [inhibitor, partial curve]",
COc1ccc(CCNC(=O)CSC(=O)c2ccccc2)cc1OC,"inconclusive: 25.1 µM [inhibitor, partial curve]",
Cc1ccccc1-c1nc(CS(=O)(=O)CC(=O)N(C)C2CCCCC2)c(C)o1,"inconclusive: 39.8 µM [inhibitor, single point]",
COC1(OC)N=C(N)C2(C#N)C(c3ccc(C)cc3)C12C#N (stereo not given),inactive,
O=C1CN(c2nc(-c3cccnc3)nc3sc4c(c23)CCCC4)CCN1,"inconclusive: 25.1 µM [inhibitor, single point]",
O=C(N/N=C/c1ccc(OC(=O)c2ccccc2)c([N+](=O)[O-])c1)c1ccc(O)cc1,active: 8.91 µM,
COc1cccc(-c2coc3ccc(Br)cc3c2=O)c1,"inconclusive: 12.6 µM [inhibitor, partial curve]",
COc1ccc(/C=N/N=C2/NC(=O)C(CC(=O)O)S2)cc1OCc1ccc(Cl)cc1 (stereo not given),inactive,
CCn1cc(/C=C/C(=O)Nc2ccn(Cc3c(F)c(F)cc(F)c3F)n2)cn1,active: 22.4 µM,
NS(=O)(=O)c1ccc(NC(=S)NC(=O)/C=C/c2ccco2)cc1,"inconclusive: 22.4 µM [inhibitor, partial curve]",
Cc1ccc(O)c(C(CC(=O)NCC2(c3ccccc3)CCCC2)c2ccccc2)c1 (stereo not given),inactive,
Cc1ccc(NNc2c(C)nc3ccccc3nc2=O)cc1,"inconclusive: 3.98 µM [inhibitor, full curve]",
COC(=O)CCC(=O)OC1(C)C(=O)C2=CN(C(CO)CO)C(c3ccc(OC)cc3)=CC2=C(Br)C1=O (stereo not given),active: 3.98 µM,
Clc1ccc(N/N=C/c2cccnc2)cc1,"inconclusive: 12.6 µM [inhibitor, partial curve]",
COc1ccccc1C1CC(c2ccc(Cl)cc2)Nc2ncnn21 (stereo not given),inactive,
CN1CCN(CC(=O)Nc2ccc(Cl)cc2Cl)CC1,inactive,
N#C/C(=C\c1ccncc1)c1nc2ccccc2o1,inactive,
O=C(Nc1ccc(Cl)cc1)Nc1nnc(CSCc2ccc(Cl)cc2)s1,"inconclusive: 25.1 µM [activator, single point]",
COC(=O)c1c(C)oc2ccc(N(C(=O)c3ccncc3)S(=O)(=O)c3ccc(C)cc3C)cc12,"inconclusive: 22.4 µM [inhibitor, partial curve]",
O=C(Sc1cccc2cccnc12)c1ccc(F)cc1,"inconclusive: 28.2 µM [inhibitor, single point]",
COc1ccc(OC)c(NC(=O)Cc2coc3ccc(C(C)C)cc23)c1,"inconclusive: 15.8 µM [inhibitor, partial curve]",

SMILES,Potency,"activity, negative = inhibition"
N#Cc1ccc(COC(=O)c2ccc(N3CCCC3)c([N+](=O)[O-])c2)cc1,"inconclusive: 5.62 µM [inhibitor, partial curve]",
CCc1cccc(-n2c(C)nc3c(cnn3-c3ccc(Cl)cc3)c2=O)c1,"inconclusive: 11.2 µM [inhibitor, partial curve, poor fit]",
Cc1cccc2cc(-c3nc4c(C)cccn4c3NCc3ccco3)c(=O)[nH]c12,"inconclusive: 11.2 µM [inhibitor, partial curve]",
O=[N+]([O-])c1ccccc1-c1ccc(/C=N/n2cnnc2)o1,"inconclusive: 20 µM [inhibitor, partial curve]",
CC(=O)N1CCOc2cc(S(=O)(=O)Nc3cccc(C(F)(F)F)c3)c(Cl)cc21,inactive,
COc1ccc(OC)c(/C=C2\SC(=S)N(Cc3cccnc3)C2=O)c1,"inconclusive: 5.01 µM [inhibitor, full curve]",
CC(C)CC(=O)Nc1ccccc1N1CCN(c2ccc(F)cc2)CC1,"inconclusive: 22.4 µM [inhibitor, single point]",
S=C(N/N=C/c1cccc2ccccc12)Nc1cccc(Cl)c1,"inconclusive: 15.8 µM [inhibitor, partial curve, poor fit]",
Cn1c(Cc2csc(N)n2)nnc1SCC(=O)NC1CCCCC1,inactive,
O=C(NC1CC1)C1CCN(c2ncnc3c2sc2cccc(F)c23)CC1,"inconclusive: 35.5 µM [inhibitor, partial curve]",
COc1ccc2nc(SCC(=O)NN)cc(C)c2c1,"inconclusive: 28.2 µM [inhibitor, partial curve]",
Cn1cnnc1SCc1ccc(C(=O)N=Nc2c(O)n(Cc3ccc(Cl)cc3)c3ccccc23)cc1,"inconclusive: 14.1 µM [inhibitor, partial curve]",
CC(C)c1ccc(NC(=O)c2cc3c(s2)-c2ccccc2SC3)cc1,inactive,
N#Cc1c(NC(=O)CSc2n[nH]c(N)n2)oc(-c2ccccc2)c1-c1ccccc1,"inconclusive: 22.4 µM [inhibitor, single point]",
Cc1cccc(-c2nc(S(=O)(=O)c3ccc(F)cc3)c(N3CCN(c4ccccc4)CC3)o2)c1,"inconclusive: 20 µM [inhibitor, single point]",
COc1ccc2nc(NC(=S)NC(=O)c3ccco3)sc2c1,"inconclusive: 2 µM [inhibitor, full curve]",
CC(C)(C)n1nnnc1C(c1cccs1)N(Cc1cccnc1)Cc1ccccc1Cl (stereo not given),"inconclusive: 15.8 µM [inhibitor, partial curve]",
C#CCCCO/N=C1/[C@H]2O[C@@H]2[C@@H](O)[C@H]2[C@H]1CCn1c(=O)n(C)c(=O)n12,,inactive: -13% [at 11.5 µM]
Cc1cccc(C)c1NC(=O)CSC(=O)c1sc2ccccc2c1Cl,"inconclusive: 2 µM [inhibitor, full curve]",
Cc1ccc(NC(=O)c2cc(C(C)(C)C)nn2Cc2ccccc2)cc1,inactive,
N#CCCSCc1ccc2oc(C(=O)O)cc2c1,inactive,
Cc1ccc(S(=O)(=O)c2nc(-c3ccccc3F)oc2N2CCCCC2)cc1,inactive,
